Experimental data from the supplement of paper PMC3334620.
Whole data set: some 33,000 sequences, median “E-score (-0.5 to 0.5)” near -0.04, cut for the highest 2% near 0.36. The list shows a part of the results.

molecular target: T1, Hmlalpha2 (UniProt P0CY09); test: PBM E-score (8-mer binding enrichment) (E-score (-0.5 to 0.5)); higher = stronger / more preferred TF binding; most listed sequences are background and not binding sites; conditions: protein concentration: 200 nM; construct: GST-full length
T1 sequence: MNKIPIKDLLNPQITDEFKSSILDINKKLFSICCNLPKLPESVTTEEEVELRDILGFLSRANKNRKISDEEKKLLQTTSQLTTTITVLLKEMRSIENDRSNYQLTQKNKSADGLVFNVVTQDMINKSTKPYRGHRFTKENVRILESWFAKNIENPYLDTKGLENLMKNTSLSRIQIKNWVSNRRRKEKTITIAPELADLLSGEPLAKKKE
Method: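 Universal 'all 10-mer' protein binding microarrays (Agilent AMADID 015681) probed with GST-tagged S. cerevisiae TFs (full-length or DBD) made by in vitro transcription/translation (PURExpress), about 100-200 nM. Bound TF was detected with fluorescent anti-GST. Each ungapped 8-mer (which stands for itself and its reverse complement) is scored by the PBM enrichment score (E-score), a modified Wilcoxon-Mann-Whitney statistic from -0.5 to +0.5, computed with the Universal PBM Analysis Suite. Scale: above 0.35 generally sequence-specific binding.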

| Sequence | PBM E-score |
| --- | --- |
| CGCTCGTC | -0.0431 |
| ACTGCACG | -0.0728 |
| ACGATGAC | -0.0158 |
| CGCGTCCG | -0.00458 |
| GCCCGACA | 0.0499 |
| AACCGATG | 0.0411 |
| CCAAGATC | -0.171 |
| ATCTTCCC | -0.0479 |
| AATGAGCC | -0.243 |
| AAATGTCT | -0.0122 |
| GTCAATCA | 0.0776 |
| AAAGCTGC | -0.0259 |
| ACCGGGCA | -0.281 |
| ATGCCTCG | 0.114 |
| AACGGTGG | -0.182 |
| AGAAGCTC | -0.0869 |
| CATAAGAG | -0.0846 |
| CATGCAGC | -0.105 |
| AGAGAGGG | -0.286 |
| GGAGTGCC | -0.262 |
| AAATATAC | 0.0539 |
| CGTATGGA | -0.143 |
| CGACCAAA | 0.128 |
| GTTCTCCA | -0.0609 |
| AACTAGTT | 0.188 |

| Sequence | PBM E-score |
| --- | --- |
| CCATATAG | -0.192 |
| TAGGTGGA | -0.0803 |
| GGATCATA | -0.23 |
| ATATACCA | -0.0254 |
| ATTAATGG | 0.216 |
| GCTGAGTA | -0.0231 |
| GGCTAACA | 0.237 |
| ACTCGTAC | -0.0659 |
| ATACCGAC | -0.0528 |
| ATTAACTA | 0.173 |
| CCAACTGG | -0.186 |
| CCCTTAAG | 0.0728 |
| AGTCTATC | -0.0461 |
| CCCCGATA | -0.147 |
| CTCGTGGC | -0.118 |
| GGTGAACC | -0.0688 |
| CCGGTGTA | 0.125 |
| AGTTAGAA | -0.0438 |
| CCTAAGTA | 0.0626 |
| AACGGCCT | -0.274 |
| CTAAAAGA | -0.0239 |
| AATAACGC | 0.258 |
| GCTTATCA | 0.00712 |
| ATCCGATC | 0.0732 |
| ACAACATC | 0.263 |

| Sequence | PBM E-score |
| --- | --- |
| TATATTGA | -0.00917 |
| CTATGTAA | 0.485 |
| ATCGAATG | -0.025 |
| CGATCCAA | -0.135 |
| AGCACTAT | 0.104 |
| GCAACGTA | 0.134 |
| GAGGAGTA | -0.00994 |
| CACACTTA | 0.104 |
| AGGCCTGA | -0.218 |
| AGTGGCTG | -0.219 |
| ACGTTCAT | 0.21 |
| AAGAATCT | 0.0109 |
| GGGCCAGA | -0.227 |
| GACACCCA | -0.174 |
| GATCTCCA | -0.15 |
| ACTCTTAG | 0.0286 |
| GATATCGA | -0.0694 |
| ATCCGCCA | -0.173 |
| GAACCAAC | 0.0452 |
| GATACGAC | -0.0691 |
| AGGTCGAT | -0.0724 |
| GGCTTCCC | -0.257 |
| GTGCCTTA | -0.08 |
| GTTTAACA | 0.41 |
| AGTACCTC | -0.0573 |

| Sequence | PBM E-score |
| --- | --- |
| GAACAGGA | 0.0327 |
| AGTGATAC | -0.0724 |
| ATGTCTAA | 0.255 |
| CAAGTTGC | 0.00682 |
| CCTCCACA | -0.155 |
| CGCCGTTA | 0.0382 |
| GGAATGAC | -0.0716 |
| GGTTCCCA | -0.14 |
| ATTGGAGC | -0.00981 |
| AAATCAGT | -0.0377 |
| CCCAACAG | -0.26 |
| ATAACCAC | -0.0123 |
| GTCACGAC | 0.0221 |
| CAAACGCC | -0.0432 |
| ACGTTAGA | 0.146 |
| CAGACGAC | -0.0894 |
| AAGTCACA | 0.0483 |
| GAACTCCC | -0.0984 |
| GGAGCTTA | -0.0509 |
| GGGCCTCA | -0.231 |
| ACTTTATC | 0.137 |
| ACCGACTA | -0.117 |
| AGCTGCAA | -0.227 |
| CGATTTGA | 0.00766 |
| GGGTGGAC | -0.164 |

| Sequence | PBM E-score |
| --- | --- |
| GACCCCGA | -0.179 |
| CAGCGCCC | -0.253 |
| CTAATTGC | -0.0532 |
| GGGTCTCA | -0.234 |
| CCTGTTGC | -0.109 |
| GTCGGCAA | -0.012 |
| AAGACCCG | -0.237 |
| AATAGGCT | -0.0765 |
| GGGATAAC | 0.0885 |
| CCGAGCGA | -0.126 |
| CAAATGCC | -0.202 |
| ACAACTAG | 0.0362 |
| GGTTCCAA | -0.176 |
| AACAGCGC | 0.146 |
| AAGCCTCA | -0.15 |
| TCTCCTAA | 0.0242 |
| ACTCCTCC | -0.17 |
| TCGAAAAA | 0.125 |
| AGGCATGA | -0.163 |
| TACTTCGA | 0.0978 |
| ACGTAAAC | 0.295 |
| AAACCGTC | 0.0106 |
| GGGCTAGA | -0.219 |
| AATGCTAT | 0.0189 |
| CAAGCAGG | -0.167 |

| Sequence | PBM E-score |
| --- | --- |
| AGCAACTC | -0.0383 |
| CGTCTCGC | -0.135 |
| ACGGCCAA | 0.0334 |
| AATCTGAA | 0.102 |
| TCCCAAAA | 0.0448 |
| TAGCATCA | 0.177 |
| GCATCAGC | -0.173 |
| AATCTAGC | -0.193 |
| CTCCGTTC | -0.0463 |
| CACAGACC | -0.025 |
| CACATAGA | 0.0951 |
| GGCGTGGA | -0.341 |
| ACAGATCA | 0.103 |
| GAAATTAA | 0.324 |
| CACTCTCA | -0.0028 |
| ATCTCTAA | -0.12 |
| CCTTACGA | -0.0407 |
| TCATAACA | 0.296 |
| ATTTATCC | 0.1 |
| AGAACCCG | -0.196 |
| TAAAATTA | 0.258 |
| AATAACGA | 0.17 |
| CGATACCC | -0.0685 |
| AGTGTTCG | 0.089 |
| AAGGTCCT | -0.264 |

| Sequence | PBM E-score |
| --- | --- |
| AGACAGGC | -0.157 |
| ATACACGA | 0.432 |
| AATCGAGT | -0.00173 |
| CATACATA | 0.329 |
| CGACCACC | -0.235 |
| ATAATAGA | 0.0374 |
| GATGTTTA | 0.223 |
| CCACCACC | -0.213 |
| AATTGAAT | 0.131 |
| CGTGCACG | -0.059 |
| GTGACCCA | -0.0947 |
| CTACCACC | -0.202 |
| ATCCGCGG | -0.141 |
| CGGTAAAG | 0.00317 |
| ACGATCTA | 0.0859 |
| CTGGACCC | -0.305 |
| GATCGCAC | 0.141 |
| ACTCAAGC | -0.0469 |
| ACTGGTCG | -0.202 |
| GACAGCAA | -0.177 |
| CATTGCCC | -0.291 |
| ATGTTAAA | 0.473 |
